For assay [1], the system named is SW-480 (colorectal cancer) cells. The assay is described as follows: SW-480 colorectal cancer xenograft in nu/nu mice. Format: in vivo, mouse. The protocol:
Mice (nu/nu) were implanted subcutaneously with 5×10^6 SW-480 (colorectal cancer) cells. After 12 days, when tumors reached approximately 100-200 mg, the mice were separated into 5 groups and treated with the following agents (or left untreated):
3—Cisplatin (4 mg/kg/, IV, q2d×5 times)
4—A2-SV (negative control antibody@10 mg/kg, IP, q2d×14 times)
5—DX-2220 (anti-Tie-1 antibody@10 mg/kg, IP, q2d×14 times)
Throughout the study, the length (L) and width (W) of any tumors that developed were measured in millimeters using calibrated vernier calipers, where L is the longer of the two dimensions. When applicable, tumor weight (M) in milligrams was calculated by using the formula associated with a prolate ellipsoid: M=(L×W^2)/2. […] A2-SV is an isotype matched (IgG1) negative control antibody that binds strepavidin.

Assay [2] relates to PC-3 (human prostate cancer). The assay can be described thus: PC-3 xenograft in mice. Format: in vivo, mouse. The settings on record: day 28 after start of treatment. On the procedure: In addition to the in vivo studies presented above, four additional mouse xenografts studies were performed. These studies were conducted either according to the protocols used in the SW-480 or LNM35 study.

The target in assay [3] is T1, human Tie1-Fc fusion protein (Homo sapiens, UniProt P35590).
T1 construct: selected against the Tie1 extracellular domain fused to human Fc or to a histidine purification tag
T1 sequence (P35590 22-759 limits assumed): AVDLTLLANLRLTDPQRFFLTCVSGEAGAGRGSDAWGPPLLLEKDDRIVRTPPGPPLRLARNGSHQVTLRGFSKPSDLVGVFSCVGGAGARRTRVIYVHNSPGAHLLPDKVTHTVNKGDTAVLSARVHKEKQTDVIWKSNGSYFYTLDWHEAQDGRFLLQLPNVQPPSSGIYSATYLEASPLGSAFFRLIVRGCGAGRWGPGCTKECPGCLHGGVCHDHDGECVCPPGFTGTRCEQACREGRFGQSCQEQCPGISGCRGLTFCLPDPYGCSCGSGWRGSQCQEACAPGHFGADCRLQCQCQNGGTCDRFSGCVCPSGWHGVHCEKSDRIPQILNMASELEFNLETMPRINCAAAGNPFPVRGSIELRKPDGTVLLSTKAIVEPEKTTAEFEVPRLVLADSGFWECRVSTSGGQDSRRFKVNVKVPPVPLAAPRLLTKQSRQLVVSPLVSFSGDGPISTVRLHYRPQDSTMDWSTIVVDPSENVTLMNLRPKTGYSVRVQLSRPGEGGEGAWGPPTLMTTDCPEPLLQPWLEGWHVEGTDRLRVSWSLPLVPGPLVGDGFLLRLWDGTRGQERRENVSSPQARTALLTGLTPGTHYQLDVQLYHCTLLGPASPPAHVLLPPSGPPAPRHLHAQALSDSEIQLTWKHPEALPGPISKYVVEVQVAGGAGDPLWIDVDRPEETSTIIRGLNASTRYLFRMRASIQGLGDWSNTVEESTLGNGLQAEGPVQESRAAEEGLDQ
The assay is described as follows: BIAcore 3000 affinity analysis of Fab and IgG. The assay is classed as binding. The protocol: Affinity analysis of the Fab and IgGs was performed using surface plasmon resonance using a BIAcore 3000 instrument. For this analysis both dimeric (Tie1-Fc fusion protein) and monomeric (Tie1-HIS) versions of the extracellular domain of the Tie1 were used. The sensor chips used in these experiments were CM5 (dextran-coated) which allow immobilization of proteins to the chip via standard amine coupling chemistries. The concentration of flowed antibody was determined using a surface plasmon resonance based method. Using a high-density protein A sensor chip, under mass transport limited conditions, the response signal is dependent only on the concentration of the antibody in the sample under test. This approach allows a precise determination of the antibody concentration, a parameter important for accurate determination of the KD.
470 RUs of Tie1 HIS protein were coated on a CM5 sensor chip and 5, 20, 100, and 500 nM of the Fab flowed over the chip at four different flow rates ([…]), rates in which the system is not mass transport limited. Kinetic data was typically determined using a range of analyte concentrations and three different chip coating densities. The data from the lowest coating density that gave a good signal was typically chosen, this was often in a range from 50-100 RUs. Using such low coating densities allowed the sensor curves to be fit using BIAEVALUATION™ 3.0 software to a 1:1 model, often even when using a bivalent analyte (IgG or Tie1-Fc fusion protein). For bivalent analytes, when fit to a 1:1 model was not possible, the curves were fit using a 2:1 model.
The anti-Tie1 antibodies described here bind to both human and mouse Tie1 molecules. The binding of the anti-Tie1 Fab to mouse Tie1-Fc fusion protein was compared with the binding of the anti-Tie1 Fab to human Tie1-Fc fusion protein. In both of these experiments the Tie1-Fc fusion protein was immobilized on the sensor chip and the anti Tie-1 Fab served as the analyte. […]
For orientation: SPR reads the build-up and loss of mass on a sensor chip optically.

B1: DX-2220: full length, IgG1, germlined human anti-Tie1 antibody E3b; LC SEQ ID NO:700, HC SEQ ID NO:701 (antibody)
heavy: EVQLLESGGGLVQPGGSLRLSCAASGFTFSMYGMVWVRQAPGKGLEWVSVISPSGGNTGYADSVKGRFTISRDNSKNTLYLQMNSLRAEDTAVYYCARAPRGYSYGYYYWGQGTLVTVSS[left out - human IgG1 constant region]
light: DIQMTQSPSSLSASVGDRVTITCRASQGIGHYLAWYQQKPGKVPKLLIYTASTLQSGVPSRFSGSGSGTDFTLTISSLQPEDVATYYCQQFNSYPHTFGQGTRLEIKRTVAAPSVFIFPPSDEQLKSGTASVVCLLNNFYPREAKVQWKVDNALQSGNSQESVTEQDSKDSTYSLSSTLTLSKADYEKHKVYACEVTHQGLSSPVTKSFNRGEC
modifications: Antibody
Regarding B1, in assay [1] (10 mg/kg IP q2d×14), the “slowing of tumor progression compared to vehicle (PBS)-treated control animals” value amounted to 44%. Moreover, in assay [1] (10 mg/kg IP q2d×14 versus cisplatin 4 mg/kg IV q2d×5), the “efficacy relative to chemotherapeutic control” value was “as efficacious as the chemotherapeutic control (cisplatin)”. For the same molecule, the “inhibition of tumor progression” value in assay [2] is recorded as 24% inhibition @ day 28. In assay [3] (Human Tie1-Fc), the “Koff” value came to 3.67e-05 s⁻¹ and the “Kon” value was 7090 M⁻¹ s⁻¹. Moreover, the “increase in affinity (avidity effect) of bivalent antibody over Fab” value in assay [3] (Tie1-Fc immobilized) is given as “greater than 10 fold”.

These data come from patent publication US20100196361A1, “Method of inhibition of vascular development using an antibody” (DYAX CORP., priority 2003, published 2010).
